Measurements published in PubChem BioAssay AID463173 (ICCB-Longwood Screening Facility, Harvard Medical School, 2010).
In all, about 52,000 compounds went through this assay and about 4,300 (8.3%) were called active. Rule as the data show it: active = survival mostly below about 52% (no sharp cut-off); inactive = mostly above about 56%. Some of the results follow.

Each compound was assayed on DeltatarO mutant (assay: S. aureus survival, RN4220 and DeltatarO strains – OD600, teichoic acid synthesis inhibitors, primary screen (AID 463173)). Conditions: S. aureus RN4220 wild type/DeltatarO growth, OD600, 18 h, stronger effect = lower value, screened at 18.75 µg/mL (by protocol).

Row | SMILES | survival
1 | CC1CCCCN1C(=O)Cn1cc(C#N)c2ccccc21 (configuration not stated) | inactive: 84%
2 | O=S(=O)(c1ccccc1)c1cccc(S(=O)(=O)N2CCCC2)c1 | inactive: 86%
3 | COc1ccccc1-c1nc(S(=O)(=O)c2ccccc2)c(N2CCC(C)CC2)o1 | active: 19%
4 | Cc1ccc(-c2cc3c(n2-c2ccc(F)cc2)CC(C)(C)CC3=O)cc1 | inactive: 98%
5 | CN(C(=O)c1c2c(nc3ccccc13)C(=O)N(C1CCCCC1)C2)c1ccc(F)cc1 | active: 0%
6 | COC(=O)c1c(SCC(=O)Nc2cccc(Cl)c2C)[nH]c2ccccc2c1=O | inactive: 90%
7 | Cc1ccc(S(=O)(=O)NCCc2csc3nc(-c4ccccc4F)nn23)cc1C | inactive: 75%
8 | OCC#Cc1cnc2ccccc2c1 | inactive: 77%
9 | CC(C)(C)OC(=O)N1CCC(c2c(C(=O)N3CCC(c4ccccc4)C3)cnn2-c2ccc(Cl)cc2)CC1 (configuration not stated) | inactive: 99%
10 | COc1cccc(-c2nc(SCc3ccc(C)cc3)n3[nH]c(=O)cc3n2)c1 | inactive: 131%
11 | CC(NC(=O)C1CCN(S(=O)(=O)c2ccc3c(c2)oc(=O)n3C)CC1)c1ccccc1 (configuration not stated) | inactive: 104%
12 | O=[N+]([O-])c1ccc(S(=O)(=O)N2CCn3cccc3C2c2ccccc2F)cc1 (configuration not stated) | inactive: 113%
13 | CCOC(=O)c1cccc(NC(=O)CSc2nc3cc4ccccc4cc3[nH]2)c1 | active: 36%
14 | CC(C)c1cnc2c(c1SCC(=O)O)c(=O)n(C)c(=O)n2C | inactive: 71%
15 | COc1ccccc1-c1cc(C(=O)NCCc2ccccc2)no1 | inactive: 57%
16 | CCC(C(=O)NCc1cccc(Br)c1)n1nc(C)c2c(C)n(-c3ccccc3)nc2c1=O (configuration not stated) | inactive: 107%
17 | CC(=O)Nc1ccc(NC(=O)c2cnn(-c3ccccc3)c2C2CCN(C(=O)OC(C)(C)C)CC2)cc1 | inactive: 75%
18 | O=S(=O)(Nc1cccc(F)c1)c1ccc2[nH]c3c(c2c1)CCCCC3 | inactive: 81%
19 | COc1ccccc1CCNC(=O)C(=O)NCC(c1ccco1)S(=O)(=O)c1ccccc1 (configuration not stated) | inactive: 77%

Row | SMILES | survival
20 | CC(C)(C)NC(=O)CN1CCC(n2nnc3cc(F)ccc32)CC1 | inactive: 93%
21 | Cc1cccc(NC(=O)CSc2nc3ccccc3c3nc(CCc4c(C)n[nH]c4C)nn23)c1 | inactive: 83%
22 | COc1ccc(Nc2nc3ccccc3nc2NS(=O)(=O)c2ccc(Cl)cc2)cc1OC | active: 29%
23 | COc1ccc(-c2csc(N)n2)cc1OC | inactive: 77%
24 | CCOc1ccc(NC(=O)CSC2=Nc3ccccc3C3=NC(Cc4ccccc4)C(=O)N23)cc1 (configuration not stated) | inactive: 92%
25 | CCOC(=O)c1c(C)[nH]c(C)c1S(=O)(=O)N1CCCC(C(=O)Nc2cccc(C)n2)C1 (configuration not stated) | inactive: 115%
26 | CCCn1nc(NC(=O)c2cccc(Cl)c2)c2cc3cccc(C)c3nc21 | inactive: 91%
27 | COc1ccc(-c2nc3sc(CCNC(=O)C(=O)Nc4ccc(C)c(F)c4)c(C)n3n2)cc1 | inactive: 84%
28 | Cc1ccc(NC(=O)Cn2c(-c3nonc3N)nc3ccccc32)cc1C | inactive: 119%
29 | COc1ccccc1CN1CCN(C2CCN(C(=O)Nc3ccccc3)CC2)C(=O)C1=O | inactive: 78%
30 | CCc1ccc(S(=O)(=O)c2cn(C)c3cc(F)c(F)cc3c2=O)cc1 | inactive: 120%
31 | COc1cc(OC)cc(C(=O)Nc2ccc3c(c2)OCCO3)c1 | inactive: 61%
32 | O=C(CNC(=O)c1ccccc1F)OCc1cc(=O)n2nc(C3CC3)sc2n1 | inactive: 107%
33 | CCOc1ccccc1Nc1nnc(-c2cc3cc(Cl)ccc3oc2=O)s1 | inactive: 80%
34 | CN(C(=O)CSc1nc(-c2ccco2)cc(C(F)(F)F)n1)c1ccccc1 | inactive: 92%
35 | CCC(=O)N1CCc2cc(CNC(=O)c3ccc(C#N)cc3)ccc21 | inactive: 76%
36 | CCOC(=O)c1ccc(NC(=O)CSc2nc(-c3cccs3)cc(C(F)(F)F)c2C#N)cc1 | inactive: 58%
37 | CCOC(=O)N1CCc2c(sc(NCc3sccc3C)c2C(=O)Nc2cc(Cl)ccc2OC)C1 | inactive: 78%
38 | CCS(=O)(=O)c1nc(S(=O)(=O)c2ccc(C)cc2)c(NCC(C)C)s1 | inactive: 95%

Row | SMILES | survival
39 | CC(=O)C1=C(c2ccc(Cl)c(Cl)c2)N(C(C)=O)n2cnnc2S1 | inactive: 126%
40 | O=C1CN(C(=O)COc2ccc(Cl)cc2)C(c2ccc(F)cc2)c2cc(Br)ccc2N1 (configuration not stated) | active: 36%
41 | Cc1ccc(NC(=O)N2CCN(Cc3nc4ccc(C)cc4o3)CC2)c(Cl)c1 | inactive: 84%
42 | CC(Nc1ccc(-c2nc(-c3ccco3)no2)cc1[N+](=O)[O-])c1ccccc1 (configuration not stated) | inactive: 100%
43 | CN1CCN(CCCNc2c(N)c(=O)oc3ccccc23)CC1 | inactive: 86%
44 | CCS(=O)(=O)c1oc(-c2ccc(F)cc2)nc1S(=O)(=O)c1ccc(Br)cc1 | active: -5%
45 | CC(C)(C)C(=O)Nc1cccc(C(=O)OCc2cc(=O)n3nc(C4CC4)sc3n2)c1 | inactive: 84%
46 | COc1ccccc1N1CCN(S(=O)(=O)CCNC(=O)C2CC(=O)N(c3ccccc3)C2)CC1 (configuration not stated) | inactive: 72%
47 | COc1cc(NC(=O)c2cc3ccc4cccnc4c3[nH]2)cc(OC)c1OC | inactive: 69%
48 | CCOC(=O)c1ccc(NC(=O)CC2C(=O)N(c3ccc(C)cc3)C(=O)N2C2CCCC2)cc1 (configuration not stated) | inactive: 126%
49 | CN(Cc1ccccc1)C(=O)C1CCC(CNS(=O)(=O)c2ccc3c(c2)CCCC(=O)N3)CC1 (configuration not stated) | inactive: 135%
50 | Cc1ccc(N2CCN(C(=O)C3CCN(c4ncnc5c4nc4n5CCCCC4)CC3)CC2)c(C)c1 | inactive: 79%
51 | Cc1ccc2nc(NC(=O)c3nc(SCc4ccccc4C)ncc3Cl)sc2c1 | inactive: 98%
52 | Cc1ccc(S(=O)(=O)N2CCC(NC(=O)c3ccccc3)CC2)cc1 | inactive: 56%
53 | CC(/C=C/c1ccccc1)=N\Nc1nc2c(c(=O)[nH]c(=O)n2C)n1CC(O)COC(C)C (configuration not stated) | inactive: 84%
54 | COCCCNC(=O)c1cnn(-c2ccc(F)cc2F)c1C1CCNCC1 | inactive: 112%
55 | O=C(NC1CCCCC1)N1CCN(Cc2ccccc2)CC1 | inactive: 69%
56 | Nc1ccc2nc(-c3ccc(O)cc3)sc2c1 | inactive: 120%
57 | COc1ccc(NC(=O)CC2C(=O)N(c3ccc(F)cc3)C(=O)N2CCc2sccc2C)cc1 (configuration not stated) | inactive: 69%
